B1: ADC-1-2a (conjugate)
heavy: QVQLVQSGAEVKKPGASVKLSCKASGYTFTSFDINWVRQAPEQRLEWMGWIFPGDGNTKYSQKFQGRATITRDTSASTAYMELSSLRSEDTAVYYCVRGEALYYFDYWGQGTLVTVSS[omitted - human IgG1 constant region]
light: DIQMTQSPSSLSASVGDRVTITCRASQDINKYLAWYQQKPGKVPKLLIYSTSTLQSGVPSRFSGSGSGTDFTLTISSLQPEDVATYYCLQYDDLFTFGQGTKLEIKRTVAAPSVFIFPPSDEQLKSGTASVVCLLNNFYPREAKVQWKVDNALQSGNSQESVTEQDSKDSTYSLSSTLTLSKADYEKHKVYACEVTHQGLSSPVCTKSFNRGEC
B2: ADC-2-2a (conjugate)
heavy: B1 heavy
light: B1 light
B3: ADC-C-2a: prepared by combining compound VcMMAE with anti-Trop2 antibody TR005 (conjugate)
heavy: B1 heavy
light: B1 light

Columns and labels:
[1] = SEC detection of ADC monomer rate (SEC-HPLC); format: physicochemical
Description: Prepare SEC mobile phase 50mM PB+300mM NaCl+200mM Arg, IPA=95:5, adjust pH=6.5 (the meanings of the abbreviations are as follows: PB: phosphate buffer solution, Arg: arginine, IPA: isopropanol). Dilute the sample to a concentration between 1~2mg/ml and then centrifuge the sample at 14000rpm for 5 minutes or filter it with a 0.22µm filter to remove large particles in the sample. Place the sample bottle on the sample plate and set the position, injection volume, number of injection needles and injection method for each sample according to the "UPLC Standard Operating Procedure". The column model is: XBridge BEH SEC, 200Å, 1.7µm, 4.6*150mm, Waters.
Set the detection wavelength to 214nm and 280nm, and edit the running method as follows: […]

[2] = system: A431 tumor-bearing mouse model; test: In vivo antitumor activity, A431 tumor-bearing mouse model; set-up: species or system BALB/c nude mice; settings: 2 mg/kg tail vein injection on days 0, 7, 14, 21
[3] = system: human colon cancer cell line SW620 (negative control cells); test: In vitro cytotoxicity assay of ADCs (MTS); format: cell-based; settings: 120h
Excerpt: DMEM medium and RMPI1640 medium were purchased from Source Biotechnology, and fetal bovine serum was purchased from ExCellBio. Human skin squamous cell carcinoma cell line A431 (Trop2 positive expression cells), human primary pancreatic adenocarcinoma BxPC-3 (Trop2 positive expression cells), human gastric cancer cell line NCI-N87 (Trop2 positive expression cells) and human colon cancer cell line SW620 (negative control cells) were purchased from ATCC (American type culture collection) and cultured using the method recommended in the literature. […] Cell Titer 96® AQueous One Solution Cell Proliferation Assay was purchased from Promega.
Human skin squamous cell carcinoma cell line A431, human primary pancreatic adenocarcinoma BxPC-3, human gastric cancer cell line NCI-N87 and human colon cancer cell line SW620 in the logarithmic growth phase were selected. A certain number of tumor cell lines were inoculated in a 96-well plate, then the cells were treated with gradient dilutions of the test antibody and the corresponding ADCs for 5 days. Finally, the cell viability was detected by MTS, and the inhibitory effect of the test antibody and ADCs on the tumor cell line was evaluated by calculating IC50. The initial concentration of the ADCs was 500 nM, the dilution multiple was 7 times, a total of 8 concentration points, and the treatment lasted for 5 days. The cell survival rate was calculated as follows: ((OD value of the experimental group - OD value of the blank group)/(OD value of the control group - OD value of the blank group)) × 100%, and then the half-maximal inhibitory concentration (IC50) was calculated using GraphPad Prism. Table 7 In vitro cytotoxicity of ADCs (120h)

[4] = Body weight of mice in the A431 tumor-bearing mouse model (initial toxicity); settings: for Average Body Weight of Mice (g) D0 / Average Body Weight of Mice (g) D3 / Average Body Weight of Mice (g) D7 / Average Body Weight of Mice (g) D10 / Average Body Weight of Mice (g) D14 / Average Body Weight of Mice (g) D17 / Average Body Weight of Mice (g) D21 / Average Body Weight of Mice (g) D24 / Average Body Weight of Mice (g) D28: 2 mg/kg tail vein injection on days 0, 7, 14, 21; for toxicity judged by changes in body weight: 2 mg/kg, result in words

Molecule | Mean Tumor Volume (mm^3) D0 [2] | Mean Tumor Volume (mm^3) D3 [2] | Mean Tumor Volume (mm^3) D7 [2] | Mean Tumor Volume (mm^3) D10 [2] | Mean Tumor Volume (mm^3) D14 [2] | Mean Tumor Volume (mm^3) D17 [2] | Mean Tumor Volume (mm^3) D21 [2] | Mean Tumor Volume (mm^3) D24 [2] | Mean Tumor Volume (mm^3) D28 [2] | IC50 [3] | Average Body Weight of Mice (g) D0 [4] | Average Body Weight of Mice (g) D3 [4] | Average Body Weight of Mice (g) D7 [4] | Average Body Weight of Mice (g) D10 [4] | Average Body Weight of Mice (g) D14 [4] | Average Body Weight of Mice (g) D17 [4] | Average Body Weight of Mice (g) D21 [4] | Average Body Weight of Mice (g) D24 [4] | Average Body Weight of Mice (g) D28 [4] | toxicity judged by changes in body weight [4] | other results
B1 | 183.78 mm^3 | 286.15 mm^3 | 390.57 mm^3 | 471.77 mm^3 | 516.78 mm^3 | 589.15 mm^3 | 595.04 mm^3 | 599.58 mm^3 | 779.54 mm^3 | 296 nM | 21.98 g | 22.00 g | 22.10 g | 22.87 g | 23.61 g | 23.55 g | 23.91 g | 24.03 g | 24.03 g | no obvious toxicity | Aggregation Rate (100%) [1]: 1.61%
B2 | 182.57 mm^3 | 391.54 mm^3 | 596.61 mm^3 | 716.69 mm^3 | 775.49 mm^3 | 811.97 mm^3 | 951.41 mm^3 | 929.08 mm^3 | 1262.70 mm^3 | 314 nM | 21.29 g | 21.63 g | 22.23 g | 22.57 g | 23.34 g | 23.97 g | 23.94 g | 24.48 g | 24.50 g | no obvious toxicity | Aggregation Rate (100%) [1]: 2.02%; Degradation Rate (100%) [1]: 0.33%
B3 | 182.16 mm^3 | 336.26 mm^3 | 570.83 mm^3 | 632.82 mm^3 | 911.55 mm^3 | 1007.99 mm^3 | 1287.42 mm^3 | 1399.82 mm^3 | 1915.84 mm^3 | 598 nM | 21.72 g | 22.02 g | 22.25 g | 23.13 g | 23.69 g | 24.29 g | 24.56 g | 25.34 g | 25.61 g | no obvious toxicity | 

— EP4595979A1, “AURISTATIN DRUG WITH HIGH-STABILITY HYDROPHILIC LINKING UNIT AND CONJUGATE THEREOF” (priority 2022, dated 2024)
